PMC11995724, “Antibiotic target discovery by integrated phenotypic and activity-based profiling of electrophilic fragments” (Cell chemical biology, 2025)
The campaign covered roughly 3,200 compounds. About 110 (3.4%) showed an effect of 50% or more. The list shows a part of the results.

These compounds were tested on T1, V. cholerae SAD30. Conditions: relative growth, OD600, LB; 25 µM; inhibitor.
T1 construct: SAD30
Design: species or system S. aureus MSSA476 (TSB) or V. cholerae SAD30 (LB); 384-well bacterial growth screen at 25 uM, OD600 relative to DMSO control

| Structure (SMILES) | % of control remaining [%] |
| --- | --- |
| C=CC(=O)NC1(Cc2nnc3ccccn23)CCCCC1 [2-L03, N-[1-({[1,2,4]triazolo[4,3-a]pyridin-3-yl}methyl)cyclohexyl]prop-2-enamide] | 109.341 |
| CCOC(=O)c1ccccc1NC(=O)CCl [4-B17, ethyl 2-(2-chloroacetamido)benzoate] | 96.6142 |
| Cc1ccc(C=C(C#N)C(=O)Nc2cccc3ccccc23)cc1 [8-M14, 2-cyano-3-(4-methylphenyl)-N-(naphthalen-1-yl)prop-2-enamide] | 75.3909 |
| C=CCNC(=O)C(C#N)=Cc1ccc(C)s1 [9-F05, 2-cyano-3-(5-methylthiophen-2-yl)-N-(prop-2-en-1-yl)prop-2-enamide] | 77.8382 |
| C=CCNC(=O)C(C#N)=Cc1ccc(C)c(C)c1 [9-D21, 2-cyano-3-(3,4-dimethylphenyl)-N-(prop-2-en-1-yl)prop-2-enamide] | 87.8994 |
| CC(C)NC(=O)C(C#N)=Cc1cnn(-c2ccc(Cl)cc2)c1 [8-I08, 3-[1-(4-chlorophenyl)-1H-pyrazol-4-yl]-2-cyano-N-(propan-2-yl)prop-2-enamide] | 68.3209 |
| C=CC(=O)Nc1conc1-c1ccccc1 [1-I09, N-(3-phenyl-1,2-oxazol-4-yl)prop-2-enamide] | 86.0987 |
| COc1ccc(-c2csc(NC(=O)CCl)n2)cc1 [4-N06, 2-chloro-N-[4-(4-methoxyphenyl)-1,3-thiazol-2-yl]acetamide] | 106.793 |
| C=CC(=O)Nc1ncnc2c1cnn2Cc1cccc(C)c1 [1-M21, N-{1-[(3-methylphenyl)methyl]-1H-pyrazolo[3,4-d]pyrimidin-4-yl}prop-2-enamide] | 90.7324 |
| C=CC(=O)NC12CC3CC(CC(C3)C1)C2 [1-E12, N-(adamantan-1-yl)prop-2-enamide] | 82.2123 |
| CCN1C(=O)CC[C@H](CNC(=O)C(C)Cl)[C@H]1c1cnn(C)c1 (mixture of isomers) [6-L13, rac-2-chloro-N-{[(2R,3S)-1-ethyl-2-(1-methyl-1H-pyrazol-4-yl)-6-oxopiperidin-3-yl]methyl}propanamide] | 86.6054 |
| C=CC(=O)Nc1ccc(-n2cnnn2)c(F)c1 [1-I17, N-[3-fluoro-4-(1H-1,2,3,4-tetrazol-1-yl)phenyl]prop-2-enamide] | 88.9387 |
| C=CC(=O)NCc1cnc(CC(C)C)s1 [1-J10, N-{[2-(2-methylpropyl)-1,3-thiazol-5-yl]methyl}prop-2-enamide] | 104.514 |
| C=CC(=O)N1CCCN(S(=O)(=O)c2ccc(OC)cc2)CC1 [3-G10, 1-[4-(4-methoxybenzenesulfonyl)-1,4-diazepan-1-yl]prop-2-en-1-one] | 94.0305 |
| CCc1ccc(OC(C)C(=O)N2CCN(C(=O)C(C)Cl)CC2)cc1 (stereo not shown) [6-H16, 1-[4-(2-chloropropanoyl)piperazin-1-yl]-2-(4-ethylphenoxy)propan-1-one] | 86.302 |
| Cc1cc(C(=O)CCl)c(C)n1CCc1ccc(Cl)cc1 [10-N16, 2-chloro-1-{1-[2-(4-chlorophenyl)ethyl]-2,5-dimethyl-1H-pyrrol-3-yl}ethan-1-one] | 92.7333 |
| C=CC(=O)NCc1ccc(C(=O)N2CCOC3(CCCC3)C2)cc1 [3-B05, N-[(4-{6-oxa-9-azaspiro[4.5]decane-9-carbonyl}phenyl)methyl]prop-2-enamide] | 107.616 |
| C=CC(=O)Nc1ccccc1CNS(C)(=O)=O [3-F16, N-[2-(methanesulfonamidomethyl)phenyl]prop-2-enamide] | 93.1483 |
| O=C(CCl)N1CCN(S(=O)(=O)c2ccc([N+](=O)[O-])cc2)CC1 [4-J07, 2-chloro-1-[4-(4-nitrobenzenesulfonyl)piperazin-1-yl]ethan-1-one] | 97.8219 |
| COc1ccc(S(=O)(=O)N2CCSSCC2)cc1C [10-D11, 5-(4-methoxy-3-methylbenzenesulfonyl)-1,2,5-dithiazepane] | 86.0316 |
| C=CC(=O)N1CCC(C(=O)N2CCCC(C)(CC)C2)CC1 (stereo not shown) [2-J10, 1-[4-(3-ethyl-3-methylpiperidine-1-carbonyl)piperidin-1-yl]prop-2-en-1-one] | 91.2767 |
| C=CC(=O)NCCc1nc(C)cs1 [2-D05, N-[2-(4-methyl-1,3-thiazol-2-yl)ethyl]prop-2-enamide] | 94.8278 |
| C=CC(=O)N1CCCC1 [1-G08, 1-(pyrrolidin-1-yl)prop-2-en-1-one] | 91.9283 |

| Structure (SMILES) | % of control remaining [%] |
| --- | --- |
| CN(C)C1=NC(N)=NC(=C(C#N)C(=O)CCl)N1 [10-P20, 2-[4-amino-6-(dimethylamino)-1,2-dihydro-1,3,5-triazin-2-ylidene]-4-chloro-3-oxobutanenitrile] | 100.526 |
| N#CC(=Cc1cc(F)ccc1F)C(=O)NC1CCCCC1 [8-G08, 2-cyano-N-cyclohexyl-3-(2,5-difluorophenyl)prop-2-enamide] | 68.7288 |
| C=CC(=O)Nc1cnc(C2CCCC2)nc1 [1-G17, N-(2-cyclopentylpyrimidin-5-yl)prop-2-enamide] | 90.284 |
| Cc1ccc(C(=O)CCl)o1 [10-A09, 2-chloro-1-(5-methylfuran-2-yl)ethan-1-one] | 117.514 |
| COc1ccc(CNC(=O)CCl)cc1OC [5-O11, 2-chloro-N-[(3,4-dimethoxyphenyl)methyl]acetamide] | 100.704 |
| CC(Cl)C(=O)N1CCCN2c3ccccc3CC2C1 (stereo not shown) [7-G06, 1-{1H,2H,3H,4H,5H,11H,11aH-[1,4]diazepino[1,2-a]indol-2-yl}-2-chloropropan-1-one] | 76.3919 |
| C=CC(=O)NC1(c2cc(C)no2)CCOCC1 [1-F18, N-[4-(3-methyl-1,2-oxazol-5-yl)oxan-4-yl]prop-2-enamide] | 107.949 |
| Cc1cc(C=C(C#N)C(=O)Nc2nccs2)cc(C)c1O [9-D13, 2-cyano-3-(4-hydroxy-3,5-dimethylphenyl)-N-(1,3-thiazol-2-yl)prop-2-enamide] | 84.7723 |
| Cc1ccc(C)c(Sc2ccc(NC(=O)CCl)cc2)c1 [4-H09, 2-chloro-N-{4-[(2,5-dimethylphenyl)sulfanyl]phenyl}acetamide] | 88.1604 |
| CC(Cl)C(=O)Nc1ccc(F)c(F)c1F (stereo not shown) [4-O08, 2-chloro-N-(2,3,4-trifluorophenyl)propanamide] | 95.579 |
| C=CC(=O)N(C)CC(=O)N1CCN(c2nsc3ccccc23)CC1 [2-N10, N-{2-[4-(1,2-benzothiazol-3-yl)piperazin-1-yl]-2-oxoethyl}-N-methylprop-2-enamide] | 84.792 |
| CC(Cl)C(=O)c1ccc2c(c1)CCC2 (stereo not shown) [10-M08, 2-chloro-1-(2,3-dihydro-1H-inden-5-yl)propan-1-one] | 102.085 |
| C=CC(=O)NCc1ccc(-n2ccnc2)cc1 [1-M18, N-{[4-(1H-imidazol-1-yl)phenyl]methyl}prop-2-enamide] | 86.3976 |
| C=CC(=O)Nc1c(C)cnn1CC1CC1 [1-M19, N-[1-(cyclopropylmethyl)-4-methyl-1H-pyrazol-5-yl]prop-2-enamide] | 84.4544 |
| COc1ccc(C=C(C#N)C(=O)Nc2cccnc2)cc1OC [8-M05, 2-cyano-3-(3,4-dimethoxyphenyl)-N-(pyridin-3-yl)prop-2-enamide] | 74.847 |
| Cn1ccc(C(=O)CCl)c1 [10-D08, 2-chloro-1-(1-methyl-1H-pyrrol-3-yl)ethan-1-one] | 103.176 |
| COc1ccc(S(=O)(=O)N2CCCCC2)cc1NC(=O)CCl [6-G13, 2-chloro-N-[2-methoxy-5-(piperidine-1-sulfonyl)phenyl]acetamide] | 82.0552 |
| C=CC(=O)N1CCC(C)C1 (stereo not shown) [2-H17, 1-(3-methylpyrrolidin-1-yl)prop-2-en-1-one] | 91.7398 |
| COc1ccc2[nH]c3c(c2c1)CCCC3NC(=O)CCl (stereo not shown) [5-G07, 2-chloro-N-(6-methoxy-2,3,4,9-tetrahydro-1H-carbazol-1-yl)acetamide] | 96.8372 |
| CC(Cl)C(=O)N1CCN(c2ccccc2)CC1.Cl (stereo not shown) [4-E14, 2-chloro-1-(4-phenylpiperazin-1-yl)propan-1-one hydrochloride] | 93.5087 |
| CCc1ccc(Cc2cnc(NC(=O)CCl)s2)cc1 [4-F19, 2-chloro-N-{5-[(4-ethylphenyl)methyl]-1,3-thiazol-2-yl}acetamide] | 82.8122 |
| Cc1c(C=C(C#N)C(=O)Nc2cnc3ccccc3c2)cc(C#N)n1C [9-N15, 2-cyano-3-(5-cyano-1,2-dimethyl-1H-pyrrol-3-yl)-N-(quinolin-3-yl)prop-2-enamide] | 86.5398 |
| C=CC(=O)N1CCN(S(=O)(=O)c2ccc(C(C)(C)C)cc2)CC1 [3-A19, 1-[4-(4-tert-butylbenzenesulfonyl)piperazin-1-yl]prop-2-en-1-one] | 119.79 |
